According to the supplement of paper PMC11417369:
± gives the standard deviation of the averaged measurements. The list shows a part of the results.

Each sequence was assayed on PfAP2-LT AP2 domain (GST-tagged) (assay: gcPBM binding intensity (ln(normalized median fluorescence intensity)); higher = stronger DNA binding).
Outline: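 Alexa488 anti-GST antibody, scanned at 488 nm, detected GST-tagged P. falciparum DNA-binding domains that had been expressed in E. coli and incubated for 1 h on an Agilent 4 × 180k array. The array carried primer-extended double-stranded 36-bp intergenic genomic probes and negative controls. Binding intensity is the highest Masliner-normalised natural-log median intensity across replicate spots of either orientation of each probe.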

Sequence | gcPBM binding intensity (ln)
ACATTGAATAAATAATGTACATATATAATATATATT [XGTACX_site95] | 8.77 ± 0.4
AAATTAAATGTAAGCACACATAAATTATACGCATAT [CACACA_site3335] | 9.11 ± 0.38
TTGCAGTATTTCGGAACACACAAACATAAATATGTA [CACACA_site5307] | 8.74 ± 0.47
TATTCTAATATATGCATACACACAAATGTGAATATA [CACACA_site2143] | 8.82 ± 0.38
CACATTATGTATCATACACACAAATAAATATAGAAT [CACACA_site609] | 9.35 ± 0.33
TTTATATGTATTAAGTGTACACATATAATGTGTTTT [XGTACX_site4890] | 8.88 ± 0.45
ATGTTTGATGCTACACGTACACACCTTGCAAATATT [XGTACX_site1644] | 9.23 ± 0.31
TATATTATTCATTAAGCACACATTATTTTTATAATA [CACACA_site6056] | 8.62 ± 0.47
TATTATTTACCTTGCTAGTTCGTTCCAAATTTTATG [XGTACX_negctrl_site197] | 8.89 ± 0.49
TTTTTTTTTTTTTTTACACACACAAAATATTATATG [CACACA_site2471] | 9.2 ± 0.41
AAAACTATAATAAAAGGTACACATTTATTTTTTTCT [XGTACX_site730] | 8.6 ± 0.49
AAAACAAATTTTAATGAGAATATGAAAAAAAAATAT [XGTACX_negctrl_site268] | 8.56 ± 0.49
CTTTGTGGTATAGATACACACTATATTAATATGAAC [CACACA_site7081] | 8.78 ± 0.45
AAATAAAAAGGGTGCACACAAAAATATATATATATA [CACACA_site1728] | 9.66 ± 0.18
ATTTTAAATATTTGTGGTACCCCTTTTTTGTAACAA [XGTACX_site5590] | 8.61 ± 0.49
CAAAATTGAAGGAACACACATACATATATATATATG [CACACA_site179] | 9.08 ± 0.41
TAAAAAAGAACAGAAACACACAAATAAAATAAAATT [CACACA_site1758] | 9.1 ± 0.52
ATTTATTTATGTATTTGTACGTATATATTTATGCAT [XGTACX_site5218] | 9.17 ± 0.38
ATAATATTTTTAAACTGTACTTTTATAAACACTTAT [XGTACX_site2625] | 8.68 ± 0.44

Sequence | gcPBM binding intensity (ln)
TTTTTTTCGTATATTACACACTATAAATAGAAATTA [CACACA_site6278] | 8.42 ± 0.4
TCATATTTTACATATGCATGTTAATAATACAAACAT [TGCATGCA_site994] | 8.68 ± 0.36
TTAACATCAAAATATGCACACAAACAATTAGCGGTA [CACACA_site8801] | 9.12 ± 0.39
TATATATATAAATACACACACACCCTAAAAATATAT [CACACA_site4970] | 9.9 ± 0.11
ATATTATGTCTACATAAACACACATATATATAAAAA [CACACA_site7976] | 8.82 ± 0.39
AATAGTTATAAATATAAATATATATATATATATATA [CACACA_negctrl_site414] | 9.22 ± 0.4
AATAAATATTCATTTTGTACATATTTTTCGTATATG [XGTACX_site6104] | 8.86 ± 0.5
TTACCATAAGTATGTGGTACACTTTAAATGAAGATA [XGTACX_site6972] | 8.53 ± 0.43
TTATATATAATATGACGTACAATTATACATTTTATG [XGTACX_site7598] | 8.71 ± 0.51
ATAAATATTTATAACAGTACATATTTACTATCCTAA [XGTACX_site4497] | 8.54 ± 0.45
ACGATTAAATCGATAATACACACTAAATGTAAAACA [CACACA_site119] | 8.96 ± 0.45
TATACACATATTTTTACACACATATTTTTTCATATA [CACACA_site7244] | 9.05 ± 0.39
AGAAAAGATAAAAATAGTACATATATATTTACTTAT [XGTACX_site7820] | 8.63 ± 0.52
TATATTATTTTTAGAAGTACTTATTGTTATAATTCT [XGTACX_site1015] | 8.53 ± 0.5
CTCCTTTCAAAAAAATGTACATGTTTACATTTCAAG [XGTACX_site7342] | 8.62 ± 0.42
TATATCAAAATACATACACACATTTGTATTTACATT [CACACA_site5485] | 9.03 ± 0.37
ATTTTAATTTGTTATACACACACAAAAAAAATTATA [CACACA_site9306] | 8.88 ± 0.32
TTTTTTTTTAATCATGCACACTGTTAAAAGAATAAA [CACACA_site4817] | 8.27 ± 0.45
TATAAAAAAATATATATATATATTATATGTGTAGAA [TGCATGCA_negctrl_site391] | 8.71 ± 0.54

Sequence | gcPBM binding intensity (ln)
ATTTATTTGAAGAATTGTACTAAATTATATAGCGGT [XGTACX_site4998] | 8.56 ± 0.36
TGCTTATTTAGAATTGTGCACAGCGAATATTCTGTT | 8.97 ± 0.46
TACATTTATACTACTGCATTCAAAAAAAATAAAAAA [TGCATGCA_negctrl_site157] | 8.34 ± 0.44
TTTTGTTATTTTTCAGTGCAATATGATAATAATATA | 8.45 ± 0.39
GAATCCTTAATATGAACACACAAATATATTACCCAT [CACACA_site186] | 9.05 ± 0.42
AGAATTTTATTATATTGTACTTTTTATAAACCTTGT [XGTACX_site7495] | 8.69 ± 0.53
TCTTTTTAACAAAAAAAAAAAAAAAAAAAAAAATTA [CACACA_negctrl_site1637] | 7.96 ± 0.43
TAGGAAAAAAATACAGTGCAATTTTTATATAAATAA [GTGCAC_site9979] | 8.6 ± 0.58
TTTTTTTTTTTTTTGTGTACTAATATTATAAATTTT [XGTACX_site4405] | 8.48 ± 0.51
TACATATTTTATAACTGTACTTTTTTATTATCCAAT [XGTACX_site5396] | 8.71 ± 0.47
TTTATATAAATCAAATGTACATATTCCAAATATATA [XGTACX_site8515] | 8.45 ± 0.34
TTTTTTTTTTCAAATACATGCATTTATGTATAATAC [TGCATGCA_site722] | 8.62 ± 0.49
ATATATTTTTAATTTGCATGTAGTAAAGCCTTAAAT [TGCATGCA_site593] | 8.53 ± 0.36
CATCAAGTGAATTGTTGTACTTTACATTGTTTTTAT [XGTACX_site7261] | 9.2 ± 0.5
TATAAATTTTGTTTAGCACACACACCGACATACATA [CACACA_site9033] | 9.46 ± 0.27
ATATATATATATATATGTACATACATACAATCATAT [XGTACX_site6410] | 9.71 ± 0.28
ATGTTGTACAGACACACACACAAAAAAAAAATAAAA [CACACA_site7184] | 9.46 ± 0.56
TATAATAGCTTCTTTACACACACCATTTTTTTTTTT [CACACA_site1456] | 9.21 ± 0.4
CTTACATATTACATATGTACATATACACCTTATGTC [XGTACX_site4679] | 9.19 ± 0.41
